Reference: PubChem BioAssay (NCI)
Several values for one entry are separate records, joined by “and”; a condition that tells them apart may be missing. Identical values can stand only once.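 48-hour exposure; five concentrations; linearly interpolated endpoints. GI50 is the concentration that inhibits growth by half. TGI marks complete inhibition of growth.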 Bridge positions count the residues as written; N and C are the ends. Square brackets hold non-standard residues; d marks the D form. Peptide text beside a SMILES is read from it. I, II: the chains in the order shown. * marks the point of attachment. Heptadecanoyl = CCCCCCCCCCCCCCCCC(=O)*; Phg = N[CH](C(=O)O)c1ccccc1

System: NCI-H322M lung
Test: inhibition of tumour cell growth, NCI panel, 48 h

For Cc1cccc2c(=O)c3c(sc12)c(NCCN)nc1ccccc13, the GI50 was 0.956 µM and the TGI was 2.27 µM.

C(=N/Nc1ccccn1)/c1cccnc1 was tested, and the TGI was > 100 µM.

In the case of N.N.N.N.O=S(=O)([O-])[O-].[Co+3].[OH3+].[OH3+], the TGI is reported as > 100 µM.

Molecule C=C1C(=O)O[C@H]2[C@H]3O[C@@H](C[C@@H]12)[C@](C)(O)CCCC(C)=CCC[C@H]3C has a TGI of 50.4 µM.

Molecule C[C@H]1[C@H](C)CC[C@]2(C(=O)O)CC[C@]3(C)C(=CC[C@@H]4[C@@]5(C)CC[C@H](OC(=O)/C=C\c6ccc(O)cc6)C(C)(C)[C@@H]5CC[C@]43C)[C@H]12 has a GI50 of 1.15 µM and a TGI of 5.97 µM.

For Cn1c(=O)c2c(nc3sc4ncccc4c(=O)n32)n(C)c1=O, the TGI was > 100 µM.

For Clc1ccc(-c2cc(-c3nc4ccccc4[nH]3)no2)cc1, the TGI was 43.7 µM.

For Cn1c(C2CC(C)(C)c3c2c2ccccc2n3C)cc2ccccc21 (stereo not drawn), the TGI was > 304 µM.

With COc1ccc(-c2oncc2-c2cc(OC)c3c(c2)OCO3)cc1 the GI50 was 4.93 µM and the TGI was > 100 µM.

With O=C1c2ccc3ccccc3c2CCC1N1CCCCC1 (stereo not drawn) the TGI was 29.1 µM.

For CNC(=S)N/N=C(/C)CCC/C(C)=N/NC(=S)NC, the TGI was > 100 µM.

In the case of CCOC(=O)C(SCCO)C(C(=O)OCC)n1cc(C)c(=O)[nH]c1=O (stereo not drawn), the TGI is reported as > 100 µM.

For O=C1[C@H](c2ccccc2)C2c3ccccc3CCN12 (stereo partly drawn), the GI50 was > 100 µM and the TGI was > 100 µM.

CC(C)(C)C1CCN(C(=O)c2ccccc2)CC1 was tested, and the TGI was > 100 µM.

For Cc1cc(Cl)ccc1Nc1nc(C(F)(F)F)ccc1C(=O)N/N=C/c1ccc(F)cc1, the GI50 was 1.16 µM and the TGI was 7.35 µM.

For CC(C)=CCC/C(C)=C/CC/C(C)=C/CC/C(C=O)=C/CC/C(C)=C\CC/C(C)=C/CC/C(C)=C/CC/C(C)=C/CC1=CC(=O)C=CC1=O, the TGI was > 100 µM.

In the case of COc1cc2c(cc1C)NC(=O)/C2=C/c1c(C)nc2sc(C)cn12, the GI50 is reported as 92.5 µM and the TGI is reported as > 100 µM.

With Oc1ccc2c3c1OC1c4[nH]c5c(c4CC4(O)C(C2)N(CC2CC2)CC[C@]314)CC1(O)C2Cc3ccc(O)c4c3[C@@]1(CCN2CC1CC1)C5O4 (stereo partly drawn) the TGI was > 100 µM.

Cn1cc(C2=C(c3cccc(NCC(O)CO)c3)C(=O)NC2=O)c2cc(Cl)ccc21 (stereo not drawn) showed a GI50 of 4.89 µM and a TGI of 16.5 µM.

Cc1cccc(C(O)c2ccccn2)c1O (stereo not drawn) was tested, and the TGI was > 100 µM.

In the case of Cc1ccc2nc(Cl)c(/C=N/N3C(=O)/C(=C/Cc4ccco4)N=C3c3ccccc3)cc2c1, the TGI is reported as > 100 µM.

For N#Cc1ccccc1/C=N/O, the TGI was > 100 µM.

Cc1cc2c(=O)cc(-c3ccc(C(=O)O)cc3)oc2c(C(=O)O)c1C was tested, and the TGI was > 100 µM.

O=C1C=CC(=O)N1CCCCCCCCCCN1C(=O)C=CC1=O was tested, and the GI50 was 31.9 µM and the TGI was > 100 µM.

CC1CC(=O)NC2CC1C2(C)C (stereo not drawn) was tested, and the TGI was > 100 µM.

Work on NNc1nc(-c2ccccn2)nc2sc3c(c12)CCCCCC3 yielded a GI50 of 5.36 µM and a TGI of 87.3 µM.

For C#Cc1ccc(-n2c(/C=C/c3ccc4ccccc4n3)nc3ncccc3c2=O)cc1, the GI50 was 0.87 µM and the TGI was 2.73 µM.

With O=C(Nc1ncc(Cc2ccc(Cl)cc2)s1)c1ccc2c(c1)OCCO2 the GI50 was 0.0726 µM and the TGI was > 100 µM.

For C#CCOc1c(OC)cc(C(=O)/C(C)=C/c2cccc(N=[N+]=[N-])c2)cc1OC, the GI50 was 0.675 µM and the TGI was > 100 µM.

O=C1CC23CC(=O)CC2(C1)c1ccccc1C3=O (stereo not drawn) was tested, and the TGI was > 100 µM.

In the case of COc1ccc(C2S/C(=C\c3cccc([N+](=O)[O-])c3)C(=O)N2NC(=O)Cc2ccccc2)cc1 (stereo not drawn), the TGI is reported as > 100 µM.

In the case of Cc1ccc(OCCn2cc(Nc3ccccc3)c(=O)[nH]c2=O)cc1, the TGI is reported as > 100 µM.

In the case of CCCN1CN(C(C(=O)N[C@@H]2C(=O)N3C(C(=O)O)=C(C)CSC23)c2ccccc2)CSC1=S (stereo partly drawn), the TGI is reported as > 100 µM.

In the case of COC(=O)C12OCC34C(CC5C(C)=CC(=O)C(O)C5(C)C3C(O)C1O)OC(=O)C(OC(=O)CC(C)C)C24 (stereo not drawn), the GI50 is reported as 0.15 µM and 0.0702 µM.

CCOC(=O)c1c2c(n3cccc(F)c13)C(=O)c1ncccc1C2=O showed a GI50 of 0.0759 µM and a TGI of 6.82 µM.

CC(=O)/C=C/c1ccc(N(C)Cc2ccc(C(C)(C)C)cc2)cc1 gave a GI50 of 191 µM and a TGI of 477 µM.

For O=C(Cc1nc2ccccc2s1)NC12CC3CC(CC(C3)C1)C2, the TGI was > 100 µM.

N=c1c2ccccc2nc2oc3ccc(Cl)cc3n12 was tested, and the TGI was > 100 µM.

O=[N+]([O-])c1ccc(C2N3CCCCC3[C@@H]3c4[nH]c5ccccc5c4CCN23)cc1 (stereo partly drawn) showed a TGI of 67.6 µM.

In the case of CCCCCCCCCCCCCCCCC(=O)N1CCCC1C(=O)NCC(=O)NC(C(=O)N1CCCC1C(=O)NC(CO)C(=O)NC(Cc1ccc(O)cc1)C(=O)NC(CCCCNC(=O)C1CCCN1C(=O)C(CCCCN)NC(=O)C(CCCCN)NC(=O)C(CCCCN)NC(=O)C(CCCNC(=N)N)NC(=O)C(CCCCN)NC(=O)C(N)C(C)C)C(=O)NC(CC(C)C)C(=O)NC(CCCNC(=N)N)C(=O)N1CCCC1C(=O)NCC(N)=O)c1ccccc1 (stereo not drawn) (I: Heptadecanoyl-PG[Phg]PSYKLRPG-NH2 / II: H-VKRKKKP; amide I:7-II:C; configuration not given here), the GI50 is reported as 16.6 µM and the TGI is reported as 56 µM.

For COC(=O)[C@]1(C)CCC[C@]2(C)C3CC4OOC3(C=C4C(C)C)CCC21 (stereo partly drawn), the TGI was 55.9 µM.

O=C(Nc1cc(Cl)cc(Cl)c1)c1ccc(NC2=C(Cl)C(=O)N(Cc3ccccc3)C2=O)cc1 gave a GI50 of 16.5 µM and a TGI of 41.1 µM.
